Laboratory results published in PubChem BioAssay AID504332 (National Center for Advancing Translational Sciences (NCATS), 2011).
The whole screen tested about 350,000 compounds, of which about 31,000 (8.9%) were called active. The inconclusive results got no clear call from the source; some entries with a clear call stand among them for comparison. Calls follow the shape of the dose curve; as a rule, active = well fitted inhibition curve with a large enough effect; inconclusive = small, poorly fitted or top-dose-only effect; inactive = no such curve, though single readings can be large or run the other way. Where the call is inconclusive, the potency comes from a doubtful curve fit.
% is scaled to controls: 0 for no effect and ±100 for the full control effect; potency is read from the fitted curve at half-maximal effect; tags tell the direction and shape of the fitted curve.
Also: nearly all actives have a fitted effect of over 75% in size.

Each compound was assayed against Histone-lysine N-methyltransferase EHMT2 (Homo sapiens) (UniProt Q96KQ7) (assay: qHTS Assay for Inhibitors of Histone Lysine Methyltransferase G9a). Settings: G9a H3K9 monomethylation, AlphaScreen, 2 h; activity, negative = inhibition: at 59 µM (top of the series) unless noted.
UniProt Q96KQ7, sequence (Q96KQ7 whole entry, looked up): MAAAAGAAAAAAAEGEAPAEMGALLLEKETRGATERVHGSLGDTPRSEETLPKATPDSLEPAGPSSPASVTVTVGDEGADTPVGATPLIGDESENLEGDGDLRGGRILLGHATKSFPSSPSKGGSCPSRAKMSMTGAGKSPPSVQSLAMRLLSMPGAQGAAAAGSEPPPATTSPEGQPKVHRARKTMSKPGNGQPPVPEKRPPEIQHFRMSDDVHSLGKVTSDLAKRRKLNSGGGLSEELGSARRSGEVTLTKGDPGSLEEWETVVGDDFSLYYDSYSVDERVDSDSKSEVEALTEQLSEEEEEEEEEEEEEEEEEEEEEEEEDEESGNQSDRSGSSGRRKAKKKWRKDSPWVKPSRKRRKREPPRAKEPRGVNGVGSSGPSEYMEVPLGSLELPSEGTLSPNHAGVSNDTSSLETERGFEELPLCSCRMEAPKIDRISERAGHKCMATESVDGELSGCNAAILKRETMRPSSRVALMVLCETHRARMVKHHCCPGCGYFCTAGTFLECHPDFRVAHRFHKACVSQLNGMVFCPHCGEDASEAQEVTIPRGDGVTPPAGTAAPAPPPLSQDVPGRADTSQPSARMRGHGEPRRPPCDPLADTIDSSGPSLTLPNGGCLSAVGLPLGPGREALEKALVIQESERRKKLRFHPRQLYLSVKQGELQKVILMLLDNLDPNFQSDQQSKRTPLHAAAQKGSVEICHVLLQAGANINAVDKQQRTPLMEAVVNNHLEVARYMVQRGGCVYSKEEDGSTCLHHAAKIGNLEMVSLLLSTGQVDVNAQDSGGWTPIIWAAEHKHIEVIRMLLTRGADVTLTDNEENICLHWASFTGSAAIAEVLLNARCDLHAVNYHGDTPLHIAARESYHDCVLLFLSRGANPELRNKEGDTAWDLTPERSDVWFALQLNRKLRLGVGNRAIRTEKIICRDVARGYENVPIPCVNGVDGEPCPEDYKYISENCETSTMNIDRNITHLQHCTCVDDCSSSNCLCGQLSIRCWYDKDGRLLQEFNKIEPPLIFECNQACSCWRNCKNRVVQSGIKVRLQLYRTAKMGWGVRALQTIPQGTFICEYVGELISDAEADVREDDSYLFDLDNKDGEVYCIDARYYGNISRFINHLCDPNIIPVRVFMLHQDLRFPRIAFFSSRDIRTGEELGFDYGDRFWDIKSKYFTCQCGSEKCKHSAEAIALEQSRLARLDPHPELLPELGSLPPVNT
Summary of the method: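 Using a bead-based AlphaScreen, monomethylated H3K9 product from 2 h room-temperature reactions (G9a 20 nM, peptide 500 nM, SAM 20 uM) was detected with 0.5 ug/mL rabbit anti-H3K9me1 antibody.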
For `CCCc1cc(=O)oc2cc(OCC(=O)NCCCn3ccnc3)c(Cl)cc12`, the “activity, negative = inhibition” value was inactive: -8.91% [at 102 µM]. For `O=C(c1ccc(COCC(F)(F)F)cc1)N1CCN(c2ccccn2)CC1`, the “activity, negative = inhibition” value was inactive: 5.67% [at 102 µM]. For `Cc1cnc(C(=O)Nc2nnc(C)s2)cn1`, the Potency was active: 2 µM. In the case of `Oc1ccc(N2CCN(C(=S)NCc3ccccc3)CC2)cc1`, the Potency is reported as active: 10 µM. For `Cc1ccccc1CC(=O)N1CCN(C(=O)C2CCCO2)CC1` (stereo not drawn), the “activity, negative = inhibition” value was inactive: 53% [at 102 µM]. With `CC(C(=O)N1CCOCC1)N1c2cccc3cccc(c23)S1(=O)=O` (stereo not drawn) the Potency was inconclusive: 100 µM [inhibitor, single point]. `Cc1cc(C(=O)Nc2c(F)cc(F)cc2Br)c(C)o1` was tested, and the activity, negative = inhibition was inactive: -8.73% [at 12.7 µM]. With `CC(NC(=O)Cn1cccc1)c1ccccc1` (stereo not drawn) the activity, negative = inhibition was inconclusive: -86.7% [inhibitor] [at 2.33 µM]. `Nc1ccc2nc(SCC(=O)Nc3ccc(N4CCOCC4)c(Cl)c3)sc2c1` was tested, and the Potency was inconclusive: 8.91 µM [inhibitor, partial curve, poor fit]. In the case of `CC1CCN(C(=O)COC(=O)/C=C/c2ccc(Br)o2)CC1`, the Potency is reported as inconclusive: 2.82 µM [inhibitor, partial curve, poor fit]. With `COc1ccccc1N1CCN(C(=O)c2ccc(Cl)c(S(=O)(=O)N3CCCC3)c2)CC1` the Potency was inconclusive: 1.78 µM [inhibitor, full curve, poor fit]. For `O=S(=O)(Nc1ccc(Oc2ncccn2)c(Cl)c1)c1ccc(F)cc1`, the Potency was inconclusive: 0.708 µM [inhibitor, partial curve, poor fit]. With `CCc1nn(CC(=O)Nc2cc(C)cc(C)c2)c(=O)c2cc3sccc3n12` the “activity, negative = inhibition” value was inactive: -17.4%. In the case of `Cc1nn(CC(=O)N/N=C/c2ccc(F)cc2)c(C)c1[N+](=O)[O-]`, the “activity, negative = inhibition” value is reported as inactive: -0.915% [at 102 µM]. `Fc1ccc(CSc2nc3ncccc3[nH]2)cc1` was tested, and the Potency was active: 50.1 µM. In the case of `CCN1CCSc2ccc(C(=O)Nc3ccc(NC(C)=O)cc3)cc21`, the Potency is reported as active: 50.1 µM. `COc1ccc(N=c2oc3c(OC)cccc3cc2C(=O)NCc2ccco2)cc1OC` was tested, and the Potency was inconclusive: 1.78 µM [inhibitor, full curve, poor fit]. With `Cc1[nH]n(-c2ccccc2)c(=O)c1N=Nc1ccccc1` the Potency was active: 3.55 µM. For `O=c1c2ccccc2cnn1Cc1n[nH]c(=S)n1-c1ccccc1F`, the Potency was active: 31.6 µM. In the case of `Cc1ccc(C(C(=O)NC(C)(C)C)N(Cc2ccccc2)C(=O)c2snc(C(N)=O)c2N)o1` (stereo not drawn), the “activity, negative = inhibition” value is reported as inactive: -3.07% [at 102 µM]. `CCOC(=O)N1CCN(Cc2c(NC(=O)c3ccco3)sc(C)c2C)CC1` was tested, and the “activity, negative = inhibition” value was inactive: -2.51%. For `O=C(NN1C(=O)C2C3C=CC(O3)C2C1=O)c1ccccc1` (stereo not drawn), the Potency was inconclusive: 28.2 µM [inhibitor, full curve, poor fit]. With `CN(C(=O)CSc1nc2cc(C(=O)O)ccc2c(=O)n1Cc1ccccc1)C1CCS(=O)(=O)C1` (stereo not drawn) the Potency was active: 50.1 µM. `O=Cc1ccccc1C=O` was tested, and the Potency was inconclusive: 3.98 µM [inhibitor, partial curve, poor fit]. `CCOc1ccccc1NC(=O)N1CCN(C)c2ncccc21` was tested, and the “activity, negative = inhibition” value was inactive: -3.38%. For `CCC(C)[C@H](NC(=O)NCCCOC(C)C)C(=O)OC` (stereo partly drawn), the “activity, negative = inhibition” value was inactive: 16.7% [at 102 µM]. In the case of `O=C(Nc1ccc(N2CCOCC2)c(F)c1)c1ccncc1`, the activity, negative = inhibition is reported as inactive: -2.3% [at 12.7 µM]. In the case of `COc1ccc(NC(=O)c2cccnc2)c(OC)c1`, the “activity, negative = inhibition” value is reported as inactive: 1.91%. For `COc1ccc(OC)c(C(=O)c2c(C)oc3cc([N+](=O)[O-])c(O)c([N+](=O)[O-])c23)c1`, the Potency was inconclusive: 7.08 µM [inhibitor, single point]. With `O=C(c1cccc(F)c1)N1CCC(N2CCCCCC2)CC1` the Potency was active: 22.4 µM. In the case of `C=CCSc1nc2ccccc2n1S(=O)(=O)c1ccc(C)cc1`, the Potency is reported as inconclusive: 20 µM [inhibitor, single point]. For `Cc1cc(C(=O)CN2CCC(C)CC2)c(C)n1-c1ccccc1F`, the Potency was active: 50.1 µM. With `Cc1ccc(Nc2nc(N)c([N+](=O)[O-])c(NCc3ccco3)n2)cc1C` the Potency was inconclusive: 22.4 µM [inhibitor, single point]. In the case of `O=C(Nc1cccc(Cl)c1Cl)c1cc2nc(-c3ccc(Cl)cc3)cc(C(F)(F)F)n2n1`, the “activity, negative = inhibition” value is reported as inactive: 9.92%. For `COC(=O)c1ccc2c(c1)S(=O)(=O)NC(=NCc1ccco1)S2`, the Potency was inconclusive: 31.6 µM [inhibitor, single point]. In the case of `COc1c(C)cccc1C(=O)Nc1ccc(N2CCOCC2)c(Cl)c1`, the Potency is reported as inconclusive: 4.47 µM [inhibitor, partial curve, poor fit]. With `CCOC(=O)c1c(C)sc(-c2c(-c3cc(C)ccc3C)[nH]c3c2c(=O)n(C)c(=O)n3C)c1O` the Potency was inconclusive: 22.4 µM [inhibitor, partial curve, poor fit]. `O=C(O)CN1C(=O)C2C3CC(C2C1=O)C1C(c2ccc(F)cc2)c2sc(=O)[nH]c2SC31` (stereo not drawn) was tested, and the Potency was active: 44.7 µM. For `Cc1ccc(NC(=O)CCn2nc(C)c(S(=O)(=O)N3CCCCC3)c2C)cc1Cl`, the activity, negative = inhibition was inactive: -0.42% [at 12.7 µM]. `OCC1(Cc2ccc(Cl)cc2)CCN(CCCc2ccccc2)CC1` was tested, and the Potency was inconclusive: 44.7 µM [inhibitor, partial curve, poor fit]. With `CCCc1nnc(NC(=O)c2cccc(OC)c2)s1` the Potency was inconclusive: 50.1 µM [inhibitor, partial curve]. In the case of `C#CCOCCOCCOCCNc1nc(N2CCN(C(=O)Cn3cc(CCCN=C(N)N)nn3)CC2)nc(N2CCN(C(=O)[C@H]([C@@H](C)O)n3cc(CCCCN)nn3)CC2)n1`, the activity, negative = inhibition is reported as inactive: 7.26% [at 2.33 µM]. With `Cc1ccccc1OC[C@H](O)CO` the “activity, negative = inhibition” value was inactive: 21.7% [at 21.5 µM]. For `COc1ccc(NC(=O)N2CCc3c(sc4c3CCCC4)C2c2ccccc2OC)cc1` (stereo not drawn), the Potency was inconclusive: 10 µM [inhibitor, partial curve, poor fit]. In the case of `COc1ccc(Cl)cc1NS(=O)(=O)c1ccc(S(=O)(=O)N2CCCC2)cc1`, the Potency is reported as active: 8.91 µM. `CN(C)c1ccc(C2CC(c3ccccc3)=Nc3nc(-c4ccccc4)cn32)cc1` (stereo not drawn) was tested, and the Potency was inconclusive: 31.6 µM [inhibitor, single point]. With `C[C@H]1CN=C(N(C)C)N1CCCC1CCCCC1` the activity, negative = inhibition was inactive: -12.6% [at 2.33 µM]. In the case of `CCCNC(=O)CSc1nc2ccccc2nc1Cc1ccc(Cl)cc1`, the “activity, negative = inhibition” value is reported as inactive: 12.5%. With `Cc1ccc(C)c(CN2C(=O)c3ccccc3S(=O)(=O)c3ccc(C(=O)N4CCc5ccccc54)cc32)c1` the Potency was inconclusive: 5.01 µM [inhibitor, partial curve, poor fit]. In the case of `Cn1c(-c2sccc2OCc2ccc(Cl)cc2Cl)n[nH]c1=S`, the Potency is reported as active: 3.16 µM. For `CN(Cc1ccc(OCC(O)CN(C)Cc2ccccc2)cc1)Cc1nccn1C` (stereo not drawn), the “activity, negative = inhibition” value was inactive: -106%. For `Cc1ccc(NC(=O)CCNC(=O)c2ccccc2Cl)cc1S(=O)(=O)N1CCOCC1`, the “activity, negative = inhibition” value was inactive: -1.3%. With `CC(Sc1nc(-c2ccccc2)cc(C(F)(F)F)n1)C(=O)Nc1sc2c(c1C#N)CCC2` (stereo not drawn) the Potency was active: 39.8 µM. In the case of `O=C(CSc1nnc2scc(-c3ccc(F)cc3)n12)NCc1ccco1`, the Potency is reported as inconclusive: 79.4 µM [inhibitor, single point]. In the case of `O=C1[C@H]2[C@H]3[C@H](O)[C@H](O)C/C(=N\OC[C@@H](O)COCc4ccco4)[C@@H]3CC[C@H]2C(=O)N1c1ccc(F)cc1F`, the Potency is reported as active: 50.1 µM. For `Nc1nc(-c2ccccc2)cs1`, the Potency was inconclusive: 39.8 µM [inhibitor, single point]. For `Oc1ccc2oc3c(c2c1/C=N/n1cnnc1)CCCC3`, the Potency was inconclusive: 20 µM [inhibitor, partial curve, poor fit]. `CN1CCN(CCOC2Cc3ccccc3Sc3ccc(Cl)cc32)CC1` (stereo not drawn) was tested, and the Potency was inconclusive: 70.8 µM [inhibitor, partial curve, poor fit]. With `COc1cc(Br)cc2cc(C(=O)N3CCN(C(=O)c4ccco4)CC3)c(=O)oc12` the Potency was inconclusive: 63.1 µM [inhibitor, partial curve, poor fit]. `COC(=O)c1ccc(NC(=O)CCc2c(C)nc3c(-c4ccccc4)c(C)nn3c2C)cc1` was tested, and the “activity, negative = inhibition” value was inactive: 1.43%. With `O=C(O)CSc1nc2ccccc2[nH]1` the Potency was inconclusive: 89.1 µM [inhibitor, single point]. With `C=CCn1c(O)c(CN2CCN(Cc3ccccc3)CC2)c(C)c(C#N)c1=O` the Potency was inconclusive: 17.8 µM [inhibitor, partial curve, poor fit]. For `COc1ccc(-c2noc(-c3ccc(N4CCCC4)c([N+](=O)[O-])c3)n2)cc1`, the “activity, negative = inhibition” value was inactive: -19.3%. `CCCCCC(O)CCc1n[nH]c(=S)n1-c1ccccc1` (stereo not drawn) was tested, and the Potency was active: 8.91 µM. `COc1cc(/C=N/n2c(C)n[nH]c2=S)ccc1OCc1ccccc1` was tested, and the Potency was active: 2.24 µM. In the case of `COc1ccc(-c2csc(NC(=O)CSc3ccc(Br)cc3)n2)c(OC)c1`, the Potency is reported as active: 25.1 µM. `Cc1ccc(-n2cc(-c3ccccc3)c3c(NN4CCOCC4)ncnc32)cc1` was tested, and the Potency was inconclusive: 89.1 µM [inhibitor, single point]. In the case of `COc1cc(O)c(C(CCN2CCCC2)c2ccc3c(c2)OCO3)c(OC)c1` (stereo not drawn), the activity, negative = inhibition is reported as inactive: -1.12% [at 12.7 µM]. For `Cc1ccc(/C=C(/NC(=O)c2ccccc2)C(=O)NC(Cc2c[nH]c3ccccc23)C(=O)O)cc1` (stereo not drawn), the Potency was inconclusive: 7.94 µM [inhibitor, partial curve, poor fit]. `COc1ccc(N2CCN(Cc3oc(CO)cc(=O)c3O)CC2)cc1` was tested, and the Potency was inconclusive: 6.31 µM [inhibitor, single point]. `CCNS(=O)(=O)c1ccc(Br)c(C(=O)OC(C)C(=O)NCC2CCCCC2)c1` (stereo not drawn) was tested, and the Potency was inconclusive: 5.01 µM [inhibitor, full curve, poor fit]. With `COc1ccccc1-n1c(=O)c2c3c(sc2n(C)c1=O)CN(C(C)=O)CC3` the “activity, negative = inhibition” value was inactive: -3.54%. For `N#Cc1ccc(NC(=O)c2cc(-c3cccc(Cl)c3)on2)cc1`, the “activity, negative = inhibition” value was inactive: -31.5%.
